Measurements taken from PubChem BioAssay AID686978 (National Center for Advancing Translational Sciences (NCATS), 2013).
In all, about 420,000 compounds went through this assay and about 64,000 (15%) were called active. The shares of active, inactive and inconclusive entries below differ from those in the screen. Calls come from the whole dose curve; as a rule, active = well fitted inhibition curve with a large enough effect; inconclusive = small, poorly fitted or top-dose-only effect; inactive = flat fitted curve, though single readings scatter. No potency is given beside an inconclusive call; the fits are too rough.
Potency is the fitted concentration of half-maximal effect; tags give direction and shape of the fitted curve.

Assay: qHTS for Inhibitors of human tyrosyl-DNA phosphodiesterase 1 (TDP1): qHTS in cells in absence of CPT; note: nearly all actives have a fitted effect of over 55% in size
Details: DT40 Tdp1-/- hTDP1 cells, no CPT, ATP luminescence, 48 h; series mostly up to 46.2 µM
How it was run: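 Luminescent ATP content (CellTiter-Glo) served as the growth readout. Knockout chicken DT40 cells expressing human TDP1 were exposed to compounds without camptothecin for a minimum 48 hr at 37 °C.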
In the case of `CCOC(=O)C(C(=O)Nc1cccc(C)n1)C1CCCCC1` (centres undefined), the Potency is reported as inconclusive [inhibitor, single point]. With `COc1ccc(N2C(=O)[C@@H]3C(c4cccnc4)=NO[C@@H]3C2=O)cc1` the Potency was inconclusive [inhibitor, partial curve]. In the case of `CC(C)Nc1nc(-c2ccccn2)nc(-c2ccccc2)c1C#N`, the Potency is reported as inconclusive [inhibitor, single point]. In the case of `Cc1c(-c2ccccc2)c(P(=O)(N2CCOCC2)N2CCOCC2)c2ccccn12`, the Potency is reported as inconclusive [inhibitor, single point]. For `CCOc1cc(/C=N/NC(=O)C(=O)NCCCOC(C)C)cc(Br)c1O`, the Potency was “inactive”. In the case of `Cc1nc(C(F)(F)F)ccc1C(=O)N1CCC1(C)C(=O)NS(=O)(=O)c1c(C)noc1C` (centres undefined), the Potency is reported as “inactive”. For `COc1ccc(S(=O)(=O)N2CCC(C(=O)N3CCN(c4ccccc4OC)CC3)CC2)cc1`, the Potency was inconclusive [inhibitor, single point]. With `CC(=O)Oc1ccccc1C(=O)C=Cc1cccc([N+](=O)[O-])c1` the Potency was active: 20.6 µM. In the case of `COc1ccc(N(C(=O)Cn2nnc3ccccc32)C(C(=O)NCc2ccco2)c2ccncc2)cc1` (centres undefined), the Potency is reported as “inactive”. In the case of `CCCCCCSc1cccc(-c2nc3ccc(C)cn3c2NC2CCCCC2)c1`, the Potency is reported as inconclusive [inhibitor, single point]. With `O=C(COc1ccccc1)Nc1nnc(-c2ccccc2Cl)o1` the Potency was “inactive”. For `C[C@H](NC(=O)c1[nH]cnc1C(=O)Nc1ccc(Cl)cc1)c1ccccc1`, the Potency was inconclusive [inhibitor, single point]. For `CCc1ccccc1NC(=O)Cn1c(-c2nonc2N)nc2ccccc21`, the Potency was “inactive”. For `Cc1noc(C)c1COc1ccccc1C(=O)N(C)Cc1ccc(F)cc1`, the Potency was inconclusive [inhibitor, single point]. In the case of `CCC1=NN(C(=O)c2ccc(Cl)cc2)C(O)(c2ccc(C)cc2)C1` (centres undefined), the Potency is reported as inconclusive [inhibitor, single point]. For `CCOc1ccc2oc(C(=O)N(C)CCc3ccc(OC)c(OC)c3)c(C)c2c1`, the Potency was inconclusive [inhibitor, single point]. With `CS(=O)(=O)N1Cc2cc(C(=O)NCC3CC3)nc(-c3cccc(-c4cccnc4)c3)c2[C@@H]1CCO` the Potency was inconclusive [inhibitor, single point]. For `O=S(=O)(Nc1ccc2oc3c(c2c1)CCCC3)c1cc(Cl)ccc1Cl`, the Potency was inconclusive [inhibitor, partial curve]. In the case of `CC(=O)c1c(C)[nH]c(C(=O)OCC(=O)N2CCN(S(=O)(=O)c3ccc(C)cc3C)CC2)c1C`, the Potency is reported as inconclusive [inhibitor, partial curve, poor fit].
